Laboratory results as given in PubChem BioAssay AID1476 (National Center for Advancing Translational Sciences (NCATS), 2009).
Screen size: about 200,000 compounds; about 4,500 (2.2%) were called active. Inconclusive means that the source gave no clear call. Such entries were picked first, then a sample of the others. Calls follow the shape of the dose curve; as a rule, active = well fitted inhibition curve with a large enough effect; inconclusive = small, poorly fitted or top-dose-only effect, or effect the other way; inactive = flat fitted curve, though single readings scatter. Where the call is inconclusive, the potency comes from a doubtful curve fit.

molecular target: Cruzipain (Trypanosoma cruzi) (UniProt P25779); test: qHTS Assay for Promiscuous and Specific Inhibitors of Cruzain (without detergent); conditions: purified cruzain, Z-FR-AMC fluorescence, no detergent; also: nearly all actives have a fitted effect of over 40% in size;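 as to max response, negative = inhibition: plate controls were enzyme without inhibitor for no effect and buffer without enzyme for full effect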
Procedure, shortened: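 Purified cruzain at 1.5 nM, pre-incubated 15 min with compound at room temperature in 100 mM sodium acetate pH 5.5, 5 mM DTT, 0.00005% Triton X-100. Reaction started with 2 uM Z-FR-AMC; AMC fluorescence increase over 60 s gives rate.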
Potency is read from the fitted curve at half-maximal effect; tags tell the direction and shape of the fitted curve.

UniProt P25779, sequence (P25779 whole entry, looked up): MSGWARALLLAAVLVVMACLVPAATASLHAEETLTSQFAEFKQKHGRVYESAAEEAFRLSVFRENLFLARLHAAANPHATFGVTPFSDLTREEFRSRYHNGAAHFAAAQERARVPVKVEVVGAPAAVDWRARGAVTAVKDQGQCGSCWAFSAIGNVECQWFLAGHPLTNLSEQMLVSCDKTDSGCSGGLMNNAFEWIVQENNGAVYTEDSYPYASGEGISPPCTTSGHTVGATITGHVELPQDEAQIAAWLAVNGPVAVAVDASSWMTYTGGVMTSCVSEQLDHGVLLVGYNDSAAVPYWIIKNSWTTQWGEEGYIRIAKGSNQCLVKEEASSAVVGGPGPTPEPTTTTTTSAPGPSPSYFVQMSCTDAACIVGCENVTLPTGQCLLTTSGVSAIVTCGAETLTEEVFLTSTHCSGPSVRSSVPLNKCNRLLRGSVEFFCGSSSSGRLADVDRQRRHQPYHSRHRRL

| SMILES | Potency | max response, negative = inhibition |
| --- | --- | --- |
| CCCCOC(=O)c1ccc(NC(=O)/C(C#N)=C/c2ccc(-c3ccccc3)o2)cc1 | active: 25.1 µM |  |
| O=C(NCc1ccc(F)cc1)c1cc2c(s1)-c1ccccc1SC2 | inconclusive: 31.6 µM [inhibitor, single point] |  |
| O=C(CCCn1c(=O)c2ccccc2n(CC(=O)Nc2ccc(F)cc2F)c1=O)NCc1ccccc1Cl |  | inactive: -11.1% |
| CCOC(=O)C1=C(C)N(c2ccccc2)C(=O)/C1=C\c1ccco1 |  | inactive: -3.89% |
| CCCc1cc(=O)n2[nH]c(-c3cc(OC)c(OC)c(OC)c3)nc2n1 |  | inactive: -4.31% |
| COC(=O)c1cc(CSc2nnc(-c3ccccc3)c(-c3ccccc3)n2)oc1C | inconclusive: 25.1 µM [inhibitor, single point] |  |
| COc1ccc(N2CCN(Cc3nc4c(c(=O)[nH]c(=O)n4C)n3Cc3ccccc3)CC2)cc1 |  | inactive: 2.19% |
| COC(=O)c1ccc(C(=O)OC)c(NC(=O)c2c(-c3ccccc3)c(-c3ccccc3)nn(C)c2=O)c1 | inconclusive: 39.8 µM [activator, single point] |  |
| Cc1ccc2c(c1)nc(SCC(O)c1ccc(Br)cc1)n2C (stereo unspecified) |  | inactive: -4.12% |
| Cc1ccc(S(=O)Cc2nc(-c3ccc(C(=O)NC(C)c4ccccc4)cc3)oc2C)cc1 (stereo unspecified) | inconclusive: 39.8 µM [activator, single point] |  |
| CC(NC(=O)CSc1n[nH]c(-c2ccccc2)n1)c1nc2ccccc2n1C (stereo unspecified) |  | inactive: -1.04% |
| C=C(NC(=O)C(=C)NC(=O)c1csc(C2=N[C@@H]3c4csc(n4)[C@@H]4NC(=O)c5csc(n5)[C@@H]([C@](C)(O)[C@H](C)O)NC(=O)[C@@H]5CSC(=N5)/C(=C/C)NC(=O)[C@@H]([C@H](C)O)NC(=O)c5csc(n5)[C@]3(CC2)NC(=O)[C@@H](C)NC(=O)C(=C)NC(=O)[C@@H](C)NC(=O)[C@@H]([C@@H](C)CC)N[C@H]2C=Cc3c([C@H](C)O)cc(nc3[C@@H]2O)C(=O)O[C@H]4C)n1)C(N)=O | inconclusive: 12.6 µM [activator, partial curve] |  |
| Cc1ccccc1Oc1nc2c(c(=O)n(C)c(=O)n2C)n1Cc1ccc(Br)cc1 |  | inactive: 11.5% |
| c1ccc(-c2c3ccccc3nc3[nH]c4ccccc4c23)cc1 | inconclusive: 39.8 µM [inhibitor, single point] |  |
| O=c1ccc2ccc(O)cc2o1 | inconclusive: 39.8 µM [inhibitor, single point] |  |
| CSc1cc(-c2ccccc2)n(Cc2ccccc2Cl)c(=O)c1C#N | inconclusive: 0.0794 µM [inhibitor, full curve] |  |
| COC(=O)C1=NN(c2cccc(C)c2)C2C(=O)N(c3ccccc3OC)C(=O)C12 (stereo unspecified) | inconclusive: 39.8 µM [activator, single point] |  |
| COc1cccc(Cn2c(=O)c(-c3cccs3)nc3cnc(N4CCNCC4)nc32)c1 | inconclusive: 15.8 µM [inhibitor, partial curve, poor fit] |  |
| O=C(Cn1cccc1C(=O)c1ccccc1)NCCN1CCCCCC1 |  | inactive: -8.75% |
| CCOC(=O)C1=C(CNCCc2ccc(Cl)cc2)NC(=O)NC1c1ccc2c(c1)OCO2 (stereo unspecified) | inconclusive: 39.8 µM [inhibitor, single point] |  |
| CCc1nn(CC(=O)NC2CC2)c(=O)c2cc3ccccc3n12 |  | inactive: 3.66% |

| SMILES | Potency | max response, negative = inhibition |
| --- | --- | --- |
| COc1cc(OC)c2c(-c3cccc(/C=C/c4ccc(F)cc4)c3)cc(=O)oc2c1 | active: 10 µM |  |
| CN(Cc1ccccc1)c1nc2c(c(=O)n(C)c(=O)n2C)n1CCCc1ccccc1 | inconclusive: 31.6 µM [activator, single point] |  |
| C/C(=N\NC(=O)c1ccc(CSc2nncn2C)cc1)c1ccc2ccccc2c1 | inconclusive: 39.8 µM [inhibitor, single point] |  |
| CC1CCN(c2nc3ccc(C(=O)NCc4ccc(Cl)cc4)cc3s2)CC1 | inconclusive: 39.8 µM [inhibitor, single point] |  |
| CCn1nc(C)c(C(=O)Nc2cc(Oc3cc(C)cc(C)c3)cc([N+](=O)[O-])c2)c1C | inconclusive: 25.1 µM [activator, partial curve] |  |
| CCCn1c(-c2ccc(F)cc2)nc2c(N3CCCN(Cc4ccccc4)CC3)nc(C)nc21 |  | inactive: 6.12% |
| CCN(CC)CCNC(=O)c1ccc2c(c1)N(Cc1ccccc1)C(=O)c1ccccc1S2=O (stereo unspecified) |  | inactive: -10.7% |
| CC(=O)c1cccc(NC(=O)Cn2c(C)c3cnn(-c4ccccc4)c(=O)c3c2C)c1 |  | inactive: -3.38% |
| COc1ccc(N2CCN(C(=O)CCCN3C(=O)c4cccc5cccc(c45)C3=O)CC2)cc1 | inconclusive: 39.8 µM [activator, single point] |  |
| Cc1cc(C)c2cc(CN(CCN3CCCC3)C(=O)Nc3ccc(F)cc3)c(=O)[nH]c2c1 | inconclusive: 25.1 µM [inhibitor, single point] |  |
| Cc1cc(NC(=O)Nc2ccc(N(C)C)cc2)c2cc(F)cc(F)c2n1 | inconclusive: 39.8 µM [activator, single point] |  |
| O=C(Cn1cc(SCc2ccc(F)cc2)c2ccccc21)N1CCOCC1 | inconclusive: 39.8 µM [activator, single point] |  |
| CCn1cc(C(=O)N2CCN(c3ccccc3)CC2)c(=O)c2cc(S(=O)(=O)N3CCC(C)CC3)ccc21 | inconclusive: 31.6 µM [activator, single point] |  |
| COc1cc2cc(C(c3nnnn3C(C)(C)C)N3CCc4ccccc43)c(=O)[nH]c2cc1OC (stereo unspecified) | inconclusive: 31.6 µM [activator, single point] |  |
| COc1cccc(NC(=O)C2CCN(S(=O)(=O)c3cc(-c4noc(C)n4)ccc3C)CC2)c1 | inconclusive: 25.1 µM [activator, single point] |  |
| O=C(NC(=S)Nc1ccc(N2CCCCC2)c(Cl)c1)c1ccc2c(c1)OCCO2 | active: 25.1 µM |  |
| CCc1ccc(N2C(=O)CS(=O)(=O)C23C(=O)N(Cc2ccccc2F)c2ccccc23)cc1 (stereo unspecified) | active: 3.16 µM |  |
| CCOc1cc(C2c3c(oc4ccccc4c3=O)C(=O)N2Cc2ccccc2Cl)ccc1O (stereo unspecified) |  | inactive: 10.4% |
| COc1ccc2c(C)c(CCC(=O)NCc3ccc(OC)c(OC)c3)c(=O)oc2c1 | inconclusive: 0.251 µM [activator, full curve, poor fit] |  |
| COc1ccc(C(C)(C)C)cc1NC(=O)CCCn1c(=O)oc2ccccc21 | inconclusive: 39.8 µM [activator, single point] |  |
| Cc1c(Cl)cccc1NC(=O)NCCOCCn1c(=O)oc2ccccc21 |  | inactive: -1.81% |

| SMILES | Potency | max response, negative = inhibition |
| --- | --- | --- |
| O=C(CSc1nc2sc3c(c2c(=O)n1-c1ccccc1)CCCC3)NCc1ccco1 | inconclusive: 39.8 µM [inhibitor, single point] |  |
| O=C(NC(=S)Nc1nc2c(ccc3ccccc32)s1)c1cccs1 | active: 20 µM |  |
| CCOC(=O)c1ccc(NC(=O)CN2C(=O)CC(c3ccc(C)c(C)c3)=Nc3ccccc32)cc1 | inconclusive: 20 µM [inhibitor, single point] |  |
| CCOC(=O)N1CCc2c(sc(NCc3sccc3C)c2C(=O)Nc2ccccc2OCC)C1 | inconclusive: 39.8 µM [activator, single point] |  |
| CC(C)(C)c1ccc(C(=O)Nc2ccc([N+](=O)[O-])cn2)cc1 | inconclusive: 31.6 µM [inhibitor, single point] |  |
| Cn1c(=O)n(CCCc2ccccc2)c(=O)c2c1nc1n2CCN1c1ccccc1 |  | inactive: 0.569% |
| CCOC(=O)c1[nH]c2c(c1C)C(=O)CC(c1ccc(F)cc1)C2 (stereo unspecified) | inconclusive: 25.1 µM [inhibitor, single point] |  |
| COc1ccc(Cl)cc1NC(=O)CSc1cn(CC(=O)N2CCCC2)c2ccccc12 | inconclusive: 39.8 µM [activator, single point] |  |
| COc1ccccc1CNC(=O)c1cc2c(=O)n(Cc3cccs3)ccc2nc1C | inconclusive: 39.8 µM [activator, single point] |  |
| Cc1ccc(NC(=O)c2ccc(F)c(S(=O)(=O)N3CCc4ccccc4C3)c2)cc1F | inconclusive: 39.8 µM [inhibitor, single point] |  |
| Cc1cc(NC(=O)CN2C(=O)CSc3ccc(S(=O)(=O)N(C)C)cc32)ccc1Br | inconclusive: 31.6 µM [inhibitor, single point] |  |
| O=C(NCCc1c[nH]c2ccccc12)C(=O)NCC1OCCN1S(=O)(=O)c1ccc(Cl)cc1 (stereo unspecified) | inconclusive: 25.1 µM [inhibitor, single point] |  |
| COc1ccc(N(CC(=O)N/N=C/c2ccc(-c3ccc([N+](=O)[O-])cc3)o2)S(=O)(=O)c2ccc(C)cc2)cc1Cl | active: 6.31 µM |  |
| COc1ccc(-n2c(Cc3cccn3C)nnc2SCC(=O)Nc2cc(Cl)ccc2OC)cc1 | inconclusive: 25.1 µM [activator, single point] |  |
| CC(=O)Nc1ccc(OC(=O)c2cc3cc(Br)ccc3oc2=O)cc1 |  | inactive: 0.436% |
| Cc1ccccc1CS(=O)(=O)c1nnc([C@H](Cc2ccccc2)NC(=O)OC(C)(C)C)o1 | inconclusive: 12.6 µM [inhibitor, partial curve, poor fit] |  |
| COc1cccc(OC)c1Cn1nnc2c(=O)[nH]c(C3CCN(C(=O)c4ccccc4)CC3)nc21 |  | inactive: 19.4% |
| CC(=O)N1CCN(c2ccc(NC(=O)C(C)Oc3ccc(Cl)cc3Cl)cc2)CC1 (stereo unspecified) | inconclusive: 25.1 µM [activator, single point] |  |
| COc1ccc(/C=C/C(=O)NC(=S)Nc2ccc(S(=O)(=O)Nc3nccnc3OC)cc2)cc1 | inconclusive: 15.8 µM [inhibitor, partial curve, poor fit] |  |
